In PubChem BioAssay AID504339 (National Center for Advancing Translational Sciences (NCATS), 2011):
Screen size: about 390,000 compounds; about 17,000 (4.4%) were called active. The shares of active, inactive and inconclusive entries below differ from those in the screen. Calls follow the shape of the dose curve; as a rule, active = well fitted inhibition curve with a large enough effect; inconclusive = small, poorly fitted or top-dose-only effect; inactive = no such curve, though single readings can be large or run the other way. A potency beside an inconclusive call is a rough fit, not a confirmed value.
Also: nearly all actives have a fitted effect of over 50% in size.
Potency is read from the fitted curve at half-maximal effect; tags tell the direction and shape of the fitted curve.

What follows are compounds tested against Lysine-specific demethylase 4A (Homo sapiens) (UniProt O75164) (assay: qHTS Assay for Inhibitors of JMJD2A-Tudor Domain). Details: AlphaScreen JMJD2A-Tudor / H3K4me3 peptide binding; series mostly up to 114 µM.
Sequence of UniProt O75164 (O75164 whole entry, looked up, the tested form may be a part): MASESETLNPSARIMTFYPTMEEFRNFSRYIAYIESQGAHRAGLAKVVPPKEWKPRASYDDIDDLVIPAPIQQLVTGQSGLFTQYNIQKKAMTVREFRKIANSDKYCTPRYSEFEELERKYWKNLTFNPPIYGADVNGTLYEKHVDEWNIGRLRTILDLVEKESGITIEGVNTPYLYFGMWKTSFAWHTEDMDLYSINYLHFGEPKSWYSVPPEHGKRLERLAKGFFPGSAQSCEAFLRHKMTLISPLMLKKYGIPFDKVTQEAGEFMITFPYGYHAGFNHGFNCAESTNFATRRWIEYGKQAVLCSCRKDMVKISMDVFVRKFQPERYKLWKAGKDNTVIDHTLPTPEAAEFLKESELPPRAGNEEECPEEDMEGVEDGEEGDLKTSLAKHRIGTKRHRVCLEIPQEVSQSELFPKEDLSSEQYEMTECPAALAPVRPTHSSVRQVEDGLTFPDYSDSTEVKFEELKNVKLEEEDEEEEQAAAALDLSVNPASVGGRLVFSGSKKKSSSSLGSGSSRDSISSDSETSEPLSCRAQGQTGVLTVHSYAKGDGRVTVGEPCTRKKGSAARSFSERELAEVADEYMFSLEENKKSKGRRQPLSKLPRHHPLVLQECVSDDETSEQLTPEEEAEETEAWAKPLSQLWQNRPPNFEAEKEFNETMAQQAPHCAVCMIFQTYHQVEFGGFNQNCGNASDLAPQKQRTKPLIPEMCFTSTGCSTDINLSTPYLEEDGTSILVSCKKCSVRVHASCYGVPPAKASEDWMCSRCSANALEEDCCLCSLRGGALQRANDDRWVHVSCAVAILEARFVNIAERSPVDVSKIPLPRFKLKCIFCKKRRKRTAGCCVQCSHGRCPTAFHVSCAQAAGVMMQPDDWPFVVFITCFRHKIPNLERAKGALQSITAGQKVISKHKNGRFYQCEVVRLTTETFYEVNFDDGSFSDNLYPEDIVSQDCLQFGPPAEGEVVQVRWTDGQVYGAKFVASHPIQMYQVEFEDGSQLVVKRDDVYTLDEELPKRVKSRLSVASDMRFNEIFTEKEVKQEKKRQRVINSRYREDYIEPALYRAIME
O=C(c1cc(-c2ccccc2)on1)N1CCCc2ccccc21 was tested, and the Potency was “inactive”.
With Cc1ccc(C(=O)NC(C)CCc2ccccc2)cc1S(=O)(=O)N1CCOCC1 (stereo unspecified) the Potency was “inactive”.
For Cc1cccc(OCCn2c(-c3ccc(Cl)cc3)nc3ccccc3c2=O)c1, the Potency was “inactive”.
COc1ccc(C2=C(C=Nc3c(C)n(C)n(-c4ccccc4)c3=O)C(c3ccccc3C)c3ccccc3O2)cc1OC (stereo unspecified) was tested, and the Potency was inconclusive: 35.5 µM [inhibitor, partial curve, poor fit].
For CCOC(=O)CN1C(=O)C(O)=C(C(C)=O)C1c1ccccc1 (stereo unspecified), the Potency was inconclusive: 89.1 µM [inhibitor, single point].
In the case of COCCNC(=O)Cn1nc(C)c([N+](=O)[O-])c1C, the Potency is reported as “inactive”.
CCCCCCC(=O)N(O)C1CC(=O)N(c2ccc(F)cc2)C1=O (stereo unspecified) was tested, and the Potency was active: 50.1 µM.
With CC(=O)c1coc2ccc(OCC(=O)O)cc12 the Potency was “inactive”.
For COc1ccccc1N1CCN(C(=O)c2ccc(CN3CCc4ccccc4C3)cc2)CC1, the Potency was inconclusive: 56.2 µM [inhibitor, partial curve].
For COc1ccc(-n2c(O)c(/C=N/NS(=O)(=O)c3ccc(C)c([N+](=O)[O-])c3)c3ccccc3c2=O)cc1OC, the Potency was active: 39.8 µM.
With O=C(CNC(=O)c1ccccc1F)NCCCN1CCCC1=O the Potency was “inactive”.
For COc1ccc(CNC(=O)C(=O)Nc2ccc(OC)cc2OC)cc1, the Potency was “inactive”.
With COc1ccc(N(C)C(=O)C2CCN(S(=O)(=O)c3cccc4nonc34)CC2)c(OC)c1 the Potency was “inactive”.
In the case of COC(=O)c1c(NC(=O)COC(=O)c2ccc(NC(=O)CC#N)cc2)sc2c1CCCCC2, the Potency is reported as active: 44.7 µM.
With COC(=O)c1ccc(Oc2c(Cl)cccc2[N+](=O)[O-])cc1 the Potency was inconclusive: 28.2 µM [inhibitor, single point].
Nc1cc(S(=O)(=O)Nc2cc(Cl)ccc2Cl)ccc1N1CCOCC1 was tested, and the Potency was inconclusive: 39.8 µM [inhibitor, partial curve].
For CCn1c2ccccc2c2cc(N=C3SC(CC(=O)Nc4ccccc4OC)C(=O)N3CCOC)ccc21 (stereo unspecified), the Potency was inconclusive: 56.2 µM [inhibitor, partial curve].
In the case of Clc1cccc(-n2ncc3c(N4CCCCC4)ncnc32)c1, the Potency is reported as “inactive”.
With CSc1ccc(N=Nc2c(C)[nH]n(C)c2=O)cc1 the Potency was active: 25.1 µM.
O=C(NCCCn1ccnc1)Nc1ccc(Cl)c(Cl)c1 was tested, and the Potency was inconclusive: 56.2 µM [inhibitor, partial curve].
With Cc1sc2nc3c(C(=O)N4CCCC4)cc(C(=O)c4ccccc4O)cn3c(=O)c2c1C the Potency was inconclusive: 79.4 µM [inhibitor, single point].
In the case of COc1cc(-c2csc(NC3CCCCC3)n2)cc(OC)c1OC, the Potency is reported as inconclusive: 44.7 µM [inhibitor, partial curve].
In the case of CC1C/C(=N\NC(=S)NCc2ccccc2)CC(C)(C)C1 (stereo unspecified), the Potency is reported as inconclusive: 39.8 µM [inhibitor, partial curve].
In the case of COc1ccc(CNC(=O)c2c3c(nc4ccccc24)C(=O)N(C2CCCCC2)C3)c(OC)c1, the Potency is reported as inconclusive: 63.1 µM [inhibitor, partial curve, poor fit].
CCCC(=O)Nc1nc(C)c(-c2csc(Nc3ccc(Cl)cc3)n2)s1 was tested, and the Potency was inconclusive: 79.4 µM [inhibitor, partial curve].
CS(=O)(=O)Nc1cccc(C2=NN(S(=O)(=O)c3ccc(F)cc3)C(c3cccs3)C2)c1 (stereo unspecified) was tested, and the Potency was active: 79.4 µM.
In the case of O=C(Cc1ccccc1)Nc1nnc(-c2ccco2)o1, the Potency is reported as active: 44.7 µM.
For CC1=C(C(=O)Nc2cc(-c3cccc(F)c3)[nH]n2)C2(CCCCC2)OC1=O, the Potency was inconclusive: 50.1 µM [inhibitor, partial curve].
In the case of N#Cc1ccc(S(=O)(=O)NC[C@H]2O[C@@H](n3cnc4c(N)ncnc43)[C@H](O)[C@@H]2O)cc1, the Potency is reported as “inactive”.
In the case of O=C(Cc1ccccc1F)Nc1ccccc1N1CCCC1, the Potency is reported as inconclusive: 56.2 µM [inhibitor, partial curve, poor fit].
For CCCN1C(=O)/C(=C/c2ccncc2)SC1=S, the Potency was inconclusive: 79.4 µM [inhibitor, partial curve].
With COc1ccccc1NC(=O)c1cccc(S(=O)(=O)N2CCCCCC2)c1 the Potency was “inactive”.
In the case of Cc1sc(NC(=O)CN2CCOCC2)c(C(=O)c2ccccc2)c1C, the Potency is reported as inconclusive: 56.2 µM [inhibitor, partial curve].
In the case of CN(CC(=O)Nc1cccc(F)c1)CC(=O)N(C)c1c(N)n(Cc2ccccc2)c(=O)[nH]c1=O, the Potency is reported as “inactive”.
For C/C(=N\NC(=S)Nc1cccc(C)c1)c1ccccc1, the Potency was inconclusive: 50.1 µM [inhibitor, partial curve].
CC(C)(NS(=O)(=O)OCC(Cl)(Cl)Cl)c1ccccc1 was tested, and the Potency was inconclusive: 63.1 µM [inhibitor, partial curve, poor fit].
CC1(CC(=O)N/N=C/c2cc([N+](=O)[O-])c(O)cc2O)OCCO1 was tested, and the Potency was inconclusive: 3.16 µM [inhibitor, partial curve].
Cn1ccc2cc(-c3ccc4ncnc(NCc5cccs5)c4c3)ccc21 was tested, and the Potency was inconclusive: 28.2 µM [inhibitor, partial curve].
For O=C(C[C@H]1C/C=C\CC[C@H](Cc2ccc(F)cc2)C(=O)OCCNC1=O)NCCO, the Potency was “inactive”.
In the case of Cc1ccc(S(=O)(=O)Nc2ccc(C(=O)N3CCN(c4ccccc4O)CC3)cc2)cc1[N+](=O)[O-], the Potency is reported as inconclusive: 56.2 µM [inhibitor, partial curve].
O=C(Cc1ccc(S(=O)(=O)N2CCOCC2)s1)NC1CCCCC1 was tested, and the Potency was inconclusive: 25.1 µM [inhibitor, full curve, poor fit].
COc1ccc(OC)c(NC(=O)/C=C/c2ccccc2[N+](=O)[O-])c1 was tested, and the Potency was inconclusive: 70.8 µM [inhibitor, single point].
Cc1c(CCOC(=O)C23CC4CC(CC(C4)C2)C3)sc[n+]1CC#N was tested, and the Potency was “inactive”.
With Cc1nc(N2CCN(Cc3ccccc3)CC2)nc2c1C(=O)CC(c1ccco1)C2 (stereo unspecified) the Potency was inconclusive: 50.1 µM [inhibitor, partial curve].
For COc1ccc(-n2cc(-c3ccccc3)c3c(NN4CCOCC4)ncnc32)cc1, the Potency was inconclusive: 44.7 µM [inhibitor, partial curve].
In the case of O=C(c1ccc2c(c1)N(Cc1ccc(F)cc1)C(=O)c1ccccc1S2=O)N1CCC(Cc2ccccc2)CC1 (stereo unspecified), the Potency is reported as “inactive”.
CCC(CO)Oc1cc(NCc2ccccn2)c2ncn(C(C)C)c2c1 (stereo unspecified) was tested, and the Potency was inconclusive: 44.7 µM [inhibitor, single point].
CCOc1ccc(NC(=S)c2ccc3ccccc3n2)cc1 was tested, and the Potency was inconclusive: 1.41 µM [inhibitor, full curve, poor fit].
For COc1cccc(/C=N/NC(=O)c2cc(-c3cccn3C)n[nH]2)c1O, the Potency was inconclusive: 50.1 µM [inhibitor, partial curve].
In the case of COc1ccc(-c2[nH]ncc2C(=O)NCc2ccccc2C)cc1, the Potency is reported as “inactive”.
Cc1ccc(CCNS(=O)(=O)c2ccc3c(c2)N(C)CCO3)cc1 was tested, and the Potency was inconclusive: 44.7 µM [inhibitor, partial curve].
C#Cc1ccc([C@@H]2C=C(C(=O)NCc3nc4ccccc4[nH]3)O[C@H](OCC)[C@H]2CCCO)cc1 was tested, and the Potency was “inactive”.
CCc1ccc(-c2nn(CC(=O)Nc3ccccc3)c3c2cnc2ccc(F)cc23)cc1 was tested, and the Potency was “inactive”.
CCOc1ccc(NC(=S)N(CCOC)C2CCN(C(C)C)CC2)cc1 was tested, and the Potency was “inactive”.
O=C(NCC1CCCO1)c1ccc(Cl)c(S(=O)(=O)N2CCCCC2)c1 (stereo unspecified) was tested, and the Potency was “inactive”.
For CC1(C)CC(=O)C2=C(C1)N(c1ccccc1C#N)C(N)=C(C#N)C2c1cccs1 (stereo unspecified), the Potency was inconclusive: 56.2 µM [inhibitor, partial curve].
With CCOC(=O)c1cc(-c2ccccc2)n(-c2cccc(C(=O)Nc3ccc(OC)cc3)c2)c1C the Potency was inconclusive: 50.1 µM [inhibitor, partial curve].
CCc1ccc(/C=C2\SC(=S)N(CCC(=O)N3CCN(C)CC3)C2=O)cc1 was tested, and the Potency was inconclusive: 10 µM [inhibitor, full curve].
With CC(C)(C)c1ccc(NC(=O)C2CCCN(c3cnccn3)C2)cc1 (stereo unspecified) the Potency was inconclusive: 89.1 µM [inhibitor, single point].
With N#Cc1c(-c2ccc(Cl)cc2)c(-c2ccc(Cl)cc2)nn(CCO)c1=O the Potency was inconclusive: 56.2 µM [inhibitor, partial curve].
With Cc1nn(-c2ccccc2)c(OC(=O)C(C)C)c1Sc1ccc(Cl)cc1 the Potency was “inactive”.
For COc1cc(/C=N/N=C/c2cc(OC)c(O)c(OC)c2)cc(OC)c1O, the Potency was “inactive”.
COc1cc(/C=N/n2c(C3CCCCC3)n[nH]c2=S)cc(Br)c1O was tested, and the Potency was active: 12.6 µM.
Cc1cccc(N2CCN(C(=O)c3ccc(CS(=O)Cc4cccc(Cl)c4)o3)CC2)c1C (stereo unspecified) was tested, and the Potency was inconclusive: 31.6 µM [inhibitor, partial curve].
For Nc1n[nH]c(N)c1N=Nc1ccc(F)cc1, the Potency was inconclusive: 56.2 µM [inhibitor, partial curve, poor fit].
In the case of O=C(Nc1ccc2oc(-c3ccccc3)nc2c1)c1cccs1, the Potency is reported as inconclusive: 89.1 µM [inhibitor, single point].
With Cc1nc(C)c(-c2ccc(SCC(=O)Nc3ccc(Br)cc3)nn2)s1 the Potency was “inactive”.
CCn1nc(C(=O)Nc2nc3ccccc3[nH]2)c2ccccc2c1=O was tested, and the Potency was inconclusive: 5.62 µM [inhibitor, partial curve].
COc1ccc(C)cc1NC(=O)CSc1ccc(-c2ccco2)nn1 was tested, and the Potency was inconclusive: 50.1 µM [inhibitor, partial curve].
O=C(O)C(Cc1cn[nH]n1)=NO was tested, and the Potency was active: 7.94 µM.
O=C(Nc1nnc(CCc2ccccc2)s1)c1ccccc1F was tested, and the Potency was “inactive”.
